Assay results taken from the supplement of paper PMC4967469.
By IC50 is meant the dose at which the fit gives 50% viability; where the fit passes the top or lowest dose, that dose stands as a limit. AUC sums up the same curve from the lowest dose to the 256-fold higher top dose; the more sensitive the line, the further below 1. For some of these results: The top dose, if marked as inferred, is not printed in the source and was worked back from the curve model. For some of these results: Drugs with an entry number were screened twice under separate entries, and the two screens often disagree.

Assays:
Assay in all cases: Viability of human cancer cell lines after 72 h of drug (GDSC screen)
Gemcitabine = compound: Nc1ccn([C@@H]2O[C@H](CO)[C@@H](O)C2(F)F)c(=O)n1 [Gemcitabine]; conditions: top dose 1.024 µM
Protocol: (§1)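 Human cancer cell lines in 384-well plates, medium with 10% serum, drug for 72 h over a 256-fold dose range (nine 2-fold or five 4-fold steps up to the top dose). Adherent lines were fixed and stained with the nucleic acid dye Syto60, suspension lines read with resazurin; signal relative to control wells, capped at 0 and 100%. One two-parameter sigmoid per drug and line, fitted in a mixed model over all curves with the slope shared within a line.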

TW-37 = compound: CC(C)c1ccccc1Cc1cc(C(=O)Nc2ccc(S(=O)(=O)c3ccccc3C(C)(C)C)cc2)c(O)c(O)c1O [TW-37]; conditions: top dose 5 µM
Protocol: as §1

KIN001-270 = compound: Cc1ccc(Nc2cc(-c3cccc(N4C(=O)c5ccccc5C4=O)c3)ncn2)cc1NS(C)(=O)=O [KIN001-270]; conditions: top dose 20 µM; top dose inferred
Protocol: as §1

AUY922 = compound: CCNC(=O)c1noc(-c2cc(C(C)C)c(O)cc2O)c1-c1ccc(CN2CCOCC2)cc1 [AUY922]; conditions: top dose 0.256 µM; top dose inferred
Protocol: as §1

MP470 = compound: S=C(NCc1ccc2c(c1)OCO2)N1CCN(c2ncnc3c2oc2ccccc23)CC1 [MP470]; conditions: top dose 20 µM; top dose inferred
Protocol: as §1

LFM-A13 = compound: C/C(O)=C(\C#N)C(=O)Nc1cc(Br)ccc1Br [LFM-A13]; conditions: top dose 16 µM; top dose inferred
Protocol: as §1

Bicalutamide = compound: CC(O)(CS(=O)(=O)c1ccc(F)cc1)C(=O)Nc1ccc(C#N)c(C(F)(F)F)c1 [Bicalutamide]; conditions: top dose inferred
Protocol: as §1

T0901317 = compound: O=S(=O)(c1ccccc1)N(CC(F)(F)F)c1ccc(C(O)(C(F)(F)F)C(F)(F)F)cc1 [T0901317]; conditions: top dose 10.24 µM; top dose inferred
Protocol: as §1

[1] = top dose 1.024 µM, screen: GDSC drug entry 150
[2] = top dose 10 µM, screen: GDSC drug entry 1502

Row | Cell Line | AUC (Gemcitabine) | IC50 (Gemcitabine) | AUC (TW-37) | IC50 (TW-37) | AUC (KIN001-270) | IC50 (KIN001-270) | AUC (AUY922) | IC50 (AUY922) | AUC (MP470) | IC50 (MP470) | AUC (LFM-A13) | IC50 (LFM-A13) | AUC (Bicalutamide; [1]) | IC50 (Bicalutamide; [1]) | AUC (Bicalutamide; [2]) | IC50 (Bicalutamide; [2]) | AUC (T0901317) | IC50 (T0901317)
1 | RT-112 (bladder, adherent) | 0.144 | 4.45 nM | 0.589 | 560 nM | 0.954 | > 20 µM | 0.346 | 5.78 nM | 0.971 | > 20 µM | 0.945 | > 16 µM | 0.985 | > 1020 nM | 0.983 | > 10000 nM | 0.969 | > 10.2 µM
2 | U031 (kidney, adherent) | 0.195 | 7.6 nM | 0.39 | 154 nM | 0.982 | > 20 µM | 0.685 | 53.8 nM | 0.951 | > 20 µM | 0.961 | > 16 µM | 0.985 | > 1020 nM | 0.979 | > 10000 nM | 0.974 | > 10.2 µM
3 | A2058 (melanoma, adherent) | 0.273 | 15.8 nM | 0.379 | 151 nM | 0.983 | > 20 µM | 0.476 | 13.9 nM | 0.97 | > 20 µM | 0.987 | > 16 µM | 0.99 | > 1020 nM | – | – | 0.971 | > 10.2 µM
4 | MS751 (cervix, adherent) | 0.579 | 103 nM | 0.541 | 400 nM | 0.99 | > 20 µM | 0.842 | 159 nM | 0.948 | > 20 µM | 0.988 | > 16 µM | 0.99 | > 1020 nM | 0.989 | > 10000 nM | 0.989 | > 10.2 µM
5 | SKN-3 (head and neck, adherent) | 0.964 | > 1020 nM | 0.546 | 427 nM | 0.922 | > 20 µM | 0.892 | > 256 nM | 0.938 | > 20 µM | 0.973 | > 16 µM | 0.983 | > 1020 nM | 0.981 | > 10000 nM | 0.971 | > 10.2 µM
6 | HCC1806 (breast, adherent) | 0.128 | 4.87 nM | 0.775 | 1820 nM | 0.978 | > 20 µM | 0.788 | 102 nM | 0.959 | > 20 µM | 0.989 | > 16 µM | 0.985 | > 1020 nM | 0.985 | > 10000 nM | 0.972 | > 10.2 µM
7 | VM-CUB-1 (bladder, adherent) | 0.263 | 13.9 nM | 0.061 | < 19.5 nM | 0.961 | > 20 µM | 0.607 | 31.2 nM | 0.84 | 13.1 µM | 0.986 | > 16 µM | 0.988 | > 1020 nM | – | – | 0.98 | > 10.2 µM
8 | COR-L105 (lung adenocarcinoma, adherent) | 0.405 | 33 nM | 0.63 | 772 nM | 0.933 | > 20 µM | 0.564 | 24.9 nM | 0.791 | 11.3 µM | 0.946 | > 16 µM | 0.982 | > 1020 nM | 0.965 | > 10000 nM | 0.957 | > 10.2 µM
9 | HT55 (large intestine, adherent) | 0.965 | > 1020 nM | 0.601 | 591 nM | 0.99 | > 20 µM | 0.942 | > 256 nM | 0.691 | 4.26 µM | 0.978 | > 16 µM | 0.986 | > 1020 nM | – | – | 0.988 | > 10.2 µM
10 | UMC-11 (lung carcinoid, adherent) | 0.956 | > 1020 nM | 0.746 | 1440 nM | 0.967 | > 20 µM | 0.958 | > 256 nM | 0.826 | 10.4 µM | 0.972 | > 16 µM | 0.991 | > 1020 nM | 0.98 | > 10000 nM | 0.986 | > 10.2 µM
11 | NCI-H2342 (lung adenocarcinoma, adherent) | 0.188 | 6.62 nM | 0.435 | 204 nM | 0.985 | > 20 µM | 0.454 | 11.9 nM | 0.74 | 6.61 µM | 0.972 | > 16 µM | 0.984 | > 1020 nM | 0.975 | > 10000 nM | 0.985 | > 10.2 µM
12 | NCI-H1573 (lung adenocarcinoma, adherent) | 0.962 | > 1020 nM | 0.869 | 4380 nM | 0.984 | > 20 µM | 0.895 | > 256 nM | 0.946 | > 20 µM | 0.991 | > 16 µM | 0.991 | > 1020 nM | 0.98 | > 10000 nM | 0.982 | > 10.2 µM
13 | H2804 (mesothelioma, adherent) | 0.485 | 57.9 nM | 0.646 | 825 nM | 0.982 | > 20 µM | 0.669 | 49.6 nM | 0.904 | > 20 µM | 0.971 | > 16 µM | 0.981 | > 1020 nM | – | – | 0.985 | > 10.2 µM
14 | BPH-1 (prostate, adherent) | 0.233 | 9.76 nM | 0.519 | 355 nM | 0.975 | > 20 µM | 0.452 | 11.7 nM | 0.802 | 11 µM | 0.975 | > 16 µM | 0.982 | > 1020 nM | 0.948 | > 10000 nM | 0.979 | > 10.2 µM
15 | T47D (breast, adherent) | 0.875 | > 1020 nM | 0.608 | 722 nM | 0.952 | > 20 µM | 0.802 | 218 nM | 0.923 | > 20 µM | 0.959 | > 16 µM | 0.977 | > 1020 nM | 0.927 | > 10000 nM | 0.954 | > 10.2 µM
